# According to PubChem BioAssay AID485294 (National Center for Advancing Translational Sciences (NCATS), 2010):
# Among all 370,000 compounds or so, about 150 (0.041%) were called active. The inconclusive results got no clear call from the source; some entries with a clear call stand among them for comparison. The call rests on the fitted dose curve; in most records, active means well fitted inhibition curve with a large enough effect; inconclusive means small, poorly fitted or top-dose-only effect; inactive means flat fitted curve, though single readings scatter. No potency is given beside an inconclusive call; the fits are too rough.
# Target: Beta-lactamase (Escherichia coli (strain K12)) (UniProt P00811)
# Chain of UniProt P00811 (P00811 whole entry, looked up): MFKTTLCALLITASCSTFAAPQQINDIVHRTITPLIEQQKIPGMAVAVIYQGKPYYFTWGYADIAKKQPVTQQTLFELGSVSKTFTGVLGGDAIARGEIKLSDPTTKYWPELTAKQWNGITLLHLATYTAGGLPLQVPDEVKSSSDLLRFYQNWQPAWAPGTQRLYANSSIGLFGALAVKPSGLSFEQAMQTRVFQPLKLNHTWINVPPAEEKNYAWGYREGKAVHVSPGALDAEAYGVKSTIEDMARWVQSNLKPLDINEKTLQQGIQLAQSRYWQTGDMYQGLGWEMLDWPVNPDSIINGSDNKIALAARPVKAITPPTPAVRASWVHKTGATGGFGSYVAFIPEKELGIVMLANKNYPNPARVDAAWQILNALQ
# Test: qHTS Inhibitors of AmpC Beta-Lactamase (assay with detergent); further: nearly all actives have a fitted effect of over 25% in size;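 on activity change, negative = inhibition: 0% = no-compound wells and -100% = no-enzyme wells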
# Details: AmpC hydrolysis of nitrocefin, absorbance 480 nm, 0.01% Triton; activity change, negative = inhibition: at 114 µM (top of the series)
# Outline: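 20 mM phosphate pH 7.0 + 0.01% (detergent screen) or 0.0001% Triton X-100; 5.3 nM AmpC reagent; cpd preinc 15 min RT; nitrocefin (800 uM stock) to start; A480 q20 s × 4 min; Activity was normalised to no-enzyme and no-compound control wells.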
# Potency means the concentration at half of the fitted maximal effect; tags describe the fitted curve by direction and shape.
Structure (SMILES),"activity change, negative = inhibition",Potency
COc1ccc(NC(=O)/C(=C/c2ccc3c(c2)OCO3)NC(C)=O)cc1,inactive: 4.18%,–
CC(=O)Nc1ccc(C(=O)N/N=C/c2ccc(F)cc2)cc1,inactive: 4.5%,–
Cc1sc2ncnc(N3CCC(C(=O)Nc4cc(S(C)(=O)=O)ccc4Cl)CC3)c2c1C,–,"inconclusive [inhibitor, full curve, poor fit]"
CC(C)Cc1nc(N2CCC(C(N)=O)CC2)c2nnn(Cc3ccccc3)c2n1,inactive: -11.9%,–
Cc1ccc2ncc(C(=O)NCc3ccccc3Cl)c(=O)n2c1,inactive: 5.1%,–
O=C(CSc1nccn1-c1ccccc1)c1ccc(Cl)cc1,–,"inconclusive [inhibitor, partial curve]"
CCc1ccc(N2C(=O)CN(Cc3ccccc3)C2=S)cc1,–,"inconclusive [inhibitor, single point]"
COc1ccccc1Oc1ccc(S(=O)(=O)NCc2ccccn2)cc1,–,"inconclusive [inhibitor, partial curve]"
O=C(Nc1c(Cl)ccc2nsnc12)c1cccnc1,–,"inconclusive [inhibitor, single point]"
CCc1cc2cc(C)c(C)cc2nc1SCC(=O)NNC(=O)c1ccco1,–,"inconclusive [inhibitor, partial curve, poor fit]"
Cn1c(O)c(C=NCc2cccs2)c(=O)n(C)c1=O,–,"inconclusive [inhibitor, partial curve, poor fit]"
Cc1ccc(C(=O)OCC(=O)c2c(N)n(C)c(=O)n(C)c2=O)cc1S(=O)(=O)N1CCCCC1,–,"inconclusive [inhibitor, single point]"
CC1C(=O)Nc2ccccc2N1C(=O)C1CC1 (stereo not given),–,"inconclusive [inhibitor, full curve, poor fit]"
Cc1c(C)n(CCN(C)C)c2ncnc(NCc3ccccc3)c12,inactive: 6.87%,–
COc1ccc(CCn2nnnc2C(C(C)C)N2CCN(c3ncccn3)CC2)cc1OC (stereo not given),inactive: 6.22%,–
COc1ccc(NC(=O)N2C[C@@H]3C[C@@H](C2)c2cccc(=O)n2C3)cc1,–,"inconclusive [inhibitor, partial curve]"
O=C(CCc1nc(-c2ccccn2)no1)NCc1ccc2c(c1)OCO2,inactive: 2.3%,–
CCOC(=O)C(=O)C1=C(N2CCOCC2)/C(=C\c2ccc(F)cc2)CC1,inactive: -12.8%,–
COc1ccc(OC)c2c(N)c(C#N)c(C(F)(F)C(F)(F)F)nc12,–,"inconclusive [inhibitor, full curve, poor fit]"
COc1cc(/C=C2\SC(=O)N(CC(=O)Nc3ccccc3F)C2=O)cc(Cl)c1O,–,"inconclusive [inhibitor, full curve, poor fit]"
CCOC(=O)C1=C(C)NC(C)=C(C(=O)OCC)C1c1ccccn1,–,"inconclusive [inhibitor, full curve]"
CC(C)(C)CN1CCNC[C@H]1Cc1cccc2ccccc12,–,"inconclusive [inhibitor, partial curve]"
COc1ccc(/C=C2\N=C(C)OC2=O)cc1OC,–,active: 35.5 µM
COc1ccc(C2C(C(=O)Nc3cccc(C)n3)c3ccccc3C(=O)N2C)cc1 (stereo not given),inactive: -0.172%,–

Structure (SMILES),"activity change, negative = inhibition",Potency
O=[N+]([O-])c1cccc(NC(=S)N2CCc3ccccc3C2)c1,inactive: -9.35%,–
Cc1ccc(NC(=O)CSc2nnc3c(n2)[nH]c2ccccc23)cc1,–,"inconclusive [inhibitor, partial curve]"
O=C(CSc1nc(=O)n(CCN2CCOCC2)c2c1CCCC2)Nc1ccc(F)cc1F,–,"inconclusive [inhibitor, full curve, poor fit]"
CCCN1CCN(CCCNC(=O)CCCn2nc(C)c3sc4ccccc4c3c2=O)CC1,–,"inconclusive [inhibitor, full curve, poor fit]"
CCOC(=O)C1CCCN(CCc2ccccc2)C1 (stereo not given),–,"inconclusive [inhibitor, full curve, poor fit]"
CCSc1c(-c2ccccc2)nc2c(C)cccc2c1C(=O)O,–,"inconclusive [inhibitor, full curve, poor fit]"
COc1ccc2ccccc2c1CN(C)Cc1ccccc1,–,"inconclusive [inhibitor, full curve, poor fit]"
COc1cccc(C2/C(=C(\O)c3c(C)nc4c(C)cccn34)C(=O)C(=O)N2CCCN(C)C)c1 (stereo not given),–,"inconclusive [inhibitor, partial curve]"
CCOc1ccccc1NC(=O)CSc1ncnc2c1oc1ccccc12,inactive: 0.665%,–
C=CCNc1nc(Cl)nc(Nc2ccc(OCC)cc2)n1,–,"inconclusive [inhibitor, full curve, poor fit]"
Cc1ccc(C(=O)Oc2cc(N)n(S(=O)(=O)c3ccc(C)cc3)n2)cc1,–,"inconclusive [inhibitor, full curve, poor fit]"
Cc1cccc(CSc2nnc(N)n2-c2ccccc2)c1,–,"inconclusive [inhibitor, partial curve, poor fit]"
CCN1CCN(c2ccc(S(=O)(=O)N3CCOCC3)cc2NC(=O)c2ccc(Cl)s2)CC1,–,"inconclusive [inhibitor, partial curve, poor fit]"
COc1ccc(OCC(=O)NCC2(N3CCN(C)CC3)CCCCC2)cc1,inactive: -1.59%,–
COc1ccc(/C=N/Nc2nc(NCc3ccco3)nc(Nc3ccc(OC)cc3)n2)cc1,inactive: -2.43%,–
CN(C(=O)COC(=O)C1c2ccccc2Oc2ccccc21)C1CCS(=O)(=O)C1 (stereo not given),–,"inconclusive [inhibitor, full curve, poor fit]"
Cn1cncc1C#Cc1c(C=O)[nH]c2ccccc12,inactive: 2.05%,–
CC(=O)c1cccc(NC2c3ncccc3C(=O)N2Cc2ccco2)c1 (stereo not given),inactive: 0.121%,–
COc1cccc(S(=O)(=O)c2nc(C)c3c(n2)CCC3)c1,inactive: 1.7%,–
Cc1ccc(NC(=O)c2cc(C)nn2-c2ccccc2)cc1,–,inactive
CCOc1ccc(NC(=O)CN(C)C(=O)CCNC(=O)c2ccccc2Cl)cc1OCC,–,"inconclusive [inhibitor, partial curve, poor fit]"
Cc1ccc(N(CC(=O)N2CCOCC2)S(C)(=O)=O)cc1Cl,–,"inconclusive [inhibitor, full curve, poor fit]"
CCOc1cc(C(=O)Nc2ccc3oc(-c4ccc(F)cc4Cl)nc3c2)cc(OCC)c1OCC,inactive: -1.03%,–
C/C(=C(\C#N)C(=O)NCCCN1CCOCC1)N(C)C,–,"inconclusive [inhibitor, partial curve, poor fit]"

Structure (SMILES),"activity change, negative = inhibition",Potency
CC1CCCC/C1=N\Nc1ccc(S(N)(=O)=O)cc1[N+](=O)[O-] (stereo not given),–,"inconclusive [inhibitor, full curve, poor fit]"
O=C(NC1CCCCCC1)C1c2ccccc2C(=O)N1Cc1cccs1 (stereo not given),–,"inconclusive [inhibitor, partial curve, poor fit]"
FC(F)(F)c1cc(-c2cccs2)nc(N2CCOCC2)n1,inactive: 0.0982%,–
COc1ccccc1NC(=O)N(Cc1ccco1)Cc1cc2cc(C)cc(C)c2[nH]c1=O,inactive: -10.5%,–
COc1ccccc1NS(=O)(=O)c1cccc(NC(=O)Nc2ccccc2)c1,inactive: -15.9%,–
COc1cc(NC(=O)c2c(-c3ccc(C)cc3)nnc3ccccc23)cc(OC)c1OC,inactive: 4.61%,–
C/C(CC(=O)Nc1ccc2c(c1)OCCO2)=N\NC(=O)COc1ccccc1,–,"inconclusive [inhibitor, partial curve]"
CC(Oc1ccccc1)C(=O)OCC(=O)Nc1sccc1C(N)=O (stereo not given),–,"inconclusive [inhibitor, full curve]"
CC1(C2CC2)NC(=O)N(CC(=O)Nc2ccccc2C#N)C1=O (stereo not given),–,"inconclusive [inhibitor, full curve]"
COc1ccccc1CNC(=O)CC1N=C2c3ccccc3N=C(SCC(=O)Nc3ccc(F)cc3)N2C1=O (stereo not given),inactive: -3.7%,–
CC(=O)Nc1cc(C(F)(F)F)ccc1OCC1CCCO1 (stereo not given),–,"inconclusive [inhibitor, full curve, poor fit]"
O=C(CCN1CCCC1)Nc1ccccc1,–,"inconclusive [inhibitor, full curve, poor fit]"
Cc1cccc(NC(=O)C2(C)CC3c4ccccc4C2c2ccccc23)c1C (stereo not given),–,"inconclusive [inhibitor, partial curve]"
Cc1ccc(-c2n[nH]c(=S)n2/N=C/c2ccc(C)o2)cc1,inactive: 2.39%,–
CCn1c(C(=O)N2CCCC(C(=O)NCCCOC)C2)cc2sccc21 (stereo not given),inactive: 1.82%,–
COc1cccc(C2CCCCN2Cc2nc(-c3ccc(C)o3)oc2C)c1 (stereo not given),inactive: 0.23%,–
CSCCC1NC(=O)N(CC(=O)N2CCc3ccccc3C2)C1=O (stereo not given),–,"inconclusive [inhibitor, full curve]"
COc1ccc(CNC(=O)c2ccc(CNc3c(NC4CCCCC4)c(=O)c3=O)cc2)cc1,–,"inconclusive [inhibitor, partial curve, poor fit]"
O=C(C[n+]1cc(Br)cc(Br)c1)c1cccc([N+](=O)[O-])c1,inactive: 3.76%,–
Cc1ccc(N(CC(=O)NCc2ccco2)C(=O)CCC(=O)Nc2ccccn2)cc1C,–,"inconclusive [inhibitor, partial curve, poor fit]"
COc1ccc(C(=O)COC(=O)CCN=C2NS(=O)(=O)c3ccccc32)cc1OC,–,"inconclusive [inhibitor, full curve, poor fit]"
COc1cc(OC)c(S(=O)(=O)N2CCOCC2)cc1S(=O)(=O)N1CCOCC1,–,"inconclusive [inhibitor, full curve, poor fit]"
